# In PubChem BioAssay AID1346428 (National Center for Advancing Translational Sciences (NCATS), 2018):
# About 1,200 (2.5%) of roughly 48,000 compounds were called active. About 2% were inconclusive and are not listed.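 Rule for the calls: active = activation of at least 60% and not above a set upper limit (about 1 call in 100 departs from these limits); inconclusive = activation of 40% to 60%, or above that upper limit; inactive = activation under 40%.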 Some of the results follow.
# Target: Probable G-protein coupled receptor 32 (Homo sapiens) (UniProt O75388)
# Sequence of UniProt O75388 (O75388 whole entry, looked up): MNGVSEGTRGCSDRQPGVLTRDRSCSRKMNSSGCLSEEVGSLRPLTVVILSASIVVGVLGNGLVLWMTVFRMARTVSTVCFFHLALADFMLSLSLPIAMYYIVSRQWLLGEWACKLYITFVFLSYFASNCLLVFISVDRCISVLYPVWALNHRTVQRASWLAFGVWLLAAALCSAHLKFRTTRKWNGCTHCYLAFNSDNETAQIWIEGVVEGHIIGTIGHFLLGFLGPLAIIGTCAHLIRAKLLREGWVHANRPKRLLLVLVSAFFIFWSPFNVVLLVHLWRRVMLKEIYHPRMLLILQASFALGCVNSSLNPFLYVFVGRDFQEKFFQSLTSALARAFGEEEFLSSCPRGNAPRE
# Assay: qHTS for Agonists of Human Resolvin D1 Receptor DRV1; note: 0% is about no effect
# Settings: CHO-K1 GPR32 beta-arrestin PathHunter luminescence, 90 min; at 76.9 µM; active compounds read high; zero percent set by DMSO-only wells
# Summary of the method: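 Cells are plated overnight, treated with compounds in DMSO for 90 minutes at 37 °C, and developed with PathHunter detection reagent for 1 hour before luminescence is read; signal reflects beta-arrestin binding to GPR32 in engineered CHO-K1 cells.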
row,SMILES,activation
1,COC(=O)c1scc(-c2ccccc2)c1S(=O)(=O)Nc1ccc(C)c(Cl)c1,inactive: -7.34%
2,CCOc1ccc(NC(=O)c2c(NCc3cccs3)sc3c2CCCCC3)cc1,inactive: -7.83%
3,Cc1ccnc2nc(NC(=O)c3ccccc3Cl)nn12,inactive: -3.34%
4,Cc1cccc(OCC(=O)N(Cc2ccc(N(C)C)cc2)Cc2ccco2)c1C,inactive: -14.5%
5,COc1ccc(C2C=C(c3ccccc3)Nc3nc(NC(=O)/C=C/c4ccccc4OC)nn32)cc1 (stereo not given),inactive: -17.4%
6,CCC(=O)N1CCc2cc(Br)cc(S(=O)(=O)N3CCCC(C(=O)Nc4ccc(OC)cc4OC)C3)c21 (stereo not given),inactive: 2.1%
7,Cc1cccc(N(CC(=O)N(C)Cc2ccccc2)S(=O)(=O)c2ccccc2)c1C,inactive: 22.4%
8,CCc1ccc(S(=O)(=O)c2nnn3c2nc(NC(C)C)c2cc(Cl)ccc23)cc1,inactive: -18.1%
9,CC1CCc2cc(F)cc3c(=O)c(C(=O)O)cn1c23 (stereo not given),inactive: -40.3%
10,COc1ccccc1CNC(=O)c1ccc(CS(=O)c2ccccc2Cl)o1 (stereo not given),inactive: -16.7%
11,CC12CN3CC(c4ccccc4)(CN(C1)C3c1ccc(Cl)cc1)C2=O (stereo not given),inactive: 8.63%
12,CC(=O)c1cc(-c2ccccc2)n(CCC(=O)NC2CCCCC2)c1C,inactive: -9.95%
13,O=C(NCC1CCCCN1)c1cc(OCC(F)(F)F)ccc1OCC(F)(F)F (stereo not given),inactive: -6.81%
14,CCc1ccc(NC(=O)C2CCN(S(=O)(=O)c3c(C)noc3C)CC2)cc1,inactive: -8.42%
15,CCCCOc1ccc(OCCCN2CCOCC2)cc1,inactive: 3.77%
16,CCC(=O)Nc1ccccc1-c1nc2ccccc2n(CC(=O)Nc2ccc(C)c(C)c2)c1=O,inactive: 5.07%
17,COc1ccc(C2=NN(CC(=O)NCCc3ccccc3)C(=O)CC2)cc1,inactive: -22.5%
18,Cn1c(=O)c2cc(C(=O)Nc3cccc(C#N)c3)sc2c2ccccc21,inactive: 10.2%
19,COC(=O)c1ccc(NC(=O)NC(C)c2c(-n3cccc3)sc(C)c2C)cc1 (stereo not given),inactive: -21.6%
20,O=C(NC1CCCC1)c1ccc(CSc2nc3cccnc3n2Cc2ccccc2)cc1,inactive: -3%
21,COc1ccc(CCNC(=O)CSCc2nc(-c3cccc(C)c3)oc2C)cc1OC,inactive: 4.99%
22,O=C(NCc1ccccc1)c1ccc2c(c1)N(Cc1ccc(F)cc1)CCS2,inactive: -21.1%

row,SMILES,activation
1,COc1ccc(Cl)cc1NC(=O)c1sc2nc(-c3ccc(OC)c(OC)c3)ccc2c1N,inactive: 8.56%
2,O=C(COc1ccc(Cl)cc1)Nc1ccc(-c2nc3cc(Cl)ccc3o2)c(O)c1,inactive: -14.2%
3,COC(=O)c1sc2cccc(F)c2c1S(=O)(=O)Nc1cc(C)c(Cl)cc1OC,inactive: -18.1%
4,CCc1cccc(C)c1NC(=O)CN1C(=O)c2ccccc2Sc2ncccc21,inactive: -7.03%
5,CCCNC(=O)C1CCC(Cn2c(=O)c3sccc3n(CC(=O)N3CCCC3)c2=O)CC1 (stereo not given),inactive: -1.26%
6,CN[C@@H]1[C@@H](O)[C@@H](O[C@@H]2[C@H](O)[C@H](O[C@H]3OC(CN)=CC[C@H]3N)[C@@H](N)C[C@H]2N)OCC1(C)O (stereo not given in full),inactive: -8.78%
7,COc1ccc(CNC(=O)c2cc3oc4ccccc4c3n2C)cc1OC,inactive: 3.55%
8,CCCNC(=O)CN1C(=O)c2c(c3ccccc3n2C)C1c1ccc(OC)cc1 (stereo not given),inactive: -16.5%
9,Cc1c(C(=O)Nc2cccc(C#N)c2)sc2nc3n(c(=O)c12)CCCCC3,inactive: 3.44%
10,CCc1ccc(S(=O)(=O)c2nnn3c2nc(N2CCC(C(N)=O)CC2)c2cc(Cl)ccc23)cc1,inactive: -25.5%
11,CCOC(=O)c1ccc(N2C(=O)c3n[nH]c(-c4cccs4)c3C2c2ccc(OC)cc2OC)cc1 (stereo not given),inactive: -7.19%
12,CC(C)c1ccc(C2=NC(c3ccncc3)=Nc3ccc(F)cc3N2)cc1,inactive: 6.14%
13,O=C(Nc1nc2c(s1)CCCC2)c1ccccc1F,inactive: -7.97%
14,Cc1ccc(NC(=O)c2ccc(N(Cc3ccccc3)S(C)(=O)=O)cc2)cc1,inactive: -6.76%
15,COc1ccc(OC)c(CCNC(=O)c2nn(C)c3c2CSc2ccccc2-3)c1,inactive: -17.7%
16,CNC(=O)c1ccc2nc(Cc3ccccc3)oc2c1,inactive: 8.97%
17,CCOC(=O)c1c(S(=O)(=O)N2CCN(c3cccc(C(F)(F)F)c3)CC2)c(C)n(C)c1C,inactive: 12.2%
18,CCCn1cc(S(=O)(=O)c2ccc(CC)cc2)c(=O)c2cc(F)c(N3CCN(C)CC3)cc21,inactive: -0.365%
19,CCOc1ccc(Cn2c(CNS(=O)(=O)c3ccc(CC)cc3)nc3cccnc32)cc1,inactive: -21.7%
20,CCOC(=O)N1CCC(NC(=O)c2ccc3c(c2)N(Cc2ccc(Cl)cc2)C(=O)c2ccccc2S3(=O)=O)CC1,inactive: -12.5%
21,Cc1ccc(C(=O)c2oc3ccccc3c2NC(=O)C(C)Oc2ccccc2Cl)cc1 (stereo not given),inactive: -7.84%
22,CCC1CCc2c(sc(NC(=O)C3c4ccccc4Oc4ccccc43)c2C(=O)OC)C1 (stereo not given),inactive: 13.1%

row,SMILES,activation
1,CC(C)c1ccc2oc(-c3ccc(Cl)c(NC(=O)Cc4ccccc4)c3)nc2c1,inactive: 1.75%
2,Cc1cc(Br)ccc1NC(=O)CCNS(=O)(=O)c1cccc2nonc12,inactive: -4.21%
3,COc1ccc(NC(=O)c2c(NCc3cccs3)sc3c2CCCCC3)c(OC)c1,inactive: 20.3%
4,O=C(Nc1ccc(Br)cc1F)c1cc2nc(-c3ccco3)cc(C(F)(F)Cl)n2n1,inactive: -26.5%
5,O=C(Cn1cc(SCc2ccccc2F)c2ccccc21)N1CCCC1,inactive: -20.1%
6,CCOc1ccc(OCC)c(Nc2nc3ccc(C(=O)c4ccccc4)cc3n3cnnc23)c1,inactive: -13.1%
7,O=S(=O)(c1ccc(OC(F)(F)F)cc1)N1CCC(c2nc3ccccc3s2)CC1,inactive: 0.658%
8,CCCOc1ccc2nc(NC(=O)OC)[nH]c2c1,inactive: 33.1%
9,COc1ccc2c(c1)CC(C(=O)Nc1ccc(OC)cc1OC)CO2 (stereo not given),inactive: -18.5%
10,CCOC(=O)c1cccc(NC(=O)N2CCC(CN3CCc4ccccc4C3)CC2)c1,inactive: -27.1%
11,FC(F)(F)c1cccc(N2CCN(Cc3nnc(-c4ccc5c(c4)OCO5)o3)CC2)c1,inactive: -13.9%
12,O=C(Cc1ccc(F)cc1)NCc1nc2cccnc2n1Cc1ccc(F)cc1,inactive: -14.8%
13,Cc1ccccc1C(=O)Nc1ccc2nc(Nc3cccc(C(F)(F)F)c3)cc(C)c2c1,inactive: 25.1%
14,CCOc1ccc(S(=O)(=O)c2c[nH]c3ccccc3c2=O)cc1,inactive: 2.43%
15,COc1ccc(CCNC(=O)C2CCN(c3ncnc4c3nc3n4CCCCC3)CC2)c(OC)c1,inactive: 7.54%
16,CCOC(=O)c1cccc(NC(=O)N2CC(CC)Sc3ccccc32)c1 (stereo not given),inactive: -36.8%
17,COc1cccc(-c2nc(SCC(=O)NCC3CCCO3)c(-c3ccc(F)cc3)[nH]2)c1 (stereo not given),inactive: -19.3%
18,CC1CCCN(Cc2nc3c(c(=O)n(C)c(=O)n3C)n2Cc2ccc(Cl)cc2Cl)C1 (stereo not given),inactive: 11.7%
19,NS(=O)(=O)c1ccc(CCNC(=O)c2ccc3nc(Cc4ccccc4)oc3c2)cc1,inactive: 37.8%
20,CC(C)(C)C1CCc2c(sc(NC(=O)CCC(=O)O)c2C(=O)Nc2ccccc2C(F)(F)F)C1 (stereo not given),inactive: 43.5%
21,CCCc1cc(=O)oc2cc(C)c3c(-c4cccc(OC)c4)coc3c12,inactive: -5.32%
22,COC(=O)c1ccc2c(=O)n(CCCCCC(=O)N3CCN(c4cc(Cl)ccc4C)CC3)c(=O)[nH]c2c1,inactive: 6.05%

row,SMILES,activation
1,CCc1ccc(NC(=O)Cn2ncc3c(C)n(Cc4cccc(Cl)c4)c(C)c3c2=O)cc1,inactive: -0.0564%
2,CN(C)CCNC(=O)CN1C(=O)CCn2nc(-c3cn(C)c4ccccc34)cc21,inactive: -18%
3,O=C(Nc1ccc(C(F)(F)F)cc1)C1CCCN(S(=O)(=O)c2cccc3cccnc23)C1 (stereo not given),inactive: 1.52%
4,CC(=O)Nc1ccc(S(=O)(=O)NCc2ccc(C(=O)NCc3ccc(Cl)cc3)cc2)cc1,inactive: 16.6%
5,COc1ccc(CCNC(=O)c2cnc3sc(N4CCC(C)CC4)nn3c2=O)cc1OC,inactive: -0.0536%
6,O=C(Nc1cccc(C(=O)N2CCN(c3ccccc3F)CC2)c1)c1nsc2ccccc12,inactive: -17.3%
7,COc1ccccc1Nc1c2c(nc3ccc(NC(=O)c4cccc(OC)c4OC)cc13)CCCC2,inactive: -7.21%
8,COC(=O)c1cc2sccc2n1Cc1nc(-c2cccc(Br)c2)oc1C,inactive: -7.91%
9,CCN(c1ccc(OC)cc1)S(=O)(=O)c1nnc(NC(=O)c2ccccc2C)s1,inactive: -1.64%
10,CCC1CCCCN1C(=O)CSc1n[nH]c(-c2ccccc2Cl)n1 (stereo not given),inactive: -82.3%
11,CCn1ccc2cc(S(=O)(=O)N3CCCN(C(=O)Nc4ccc(C)c(F)c4)CC3)ccc21,inactive: 12.2%
12,COc1ccc(CNC(=O)C(C)N2Cc3ccccc3C2=O)cc1 (stereo not given),inactive: 4.65%
13,CC(C)CC(=O)NCC1(N(C)C)CCCCC1,inactive: -2.97%
14,CCCc1ccc(OCC(=O)Nc2sc3c(c2C(=O)OC)CCCCC3)cc1,inactive: -15%
15,CCCCOc1ccccc1C(=O)Nc1nonc1-c1ccccc1,inactive: 6.07%
16,Cc1cccc(N(C)c2nc3ccc(C)cc3n3cnnc23)c1,active: 66.1%
17,Cc1ccc(CNC(=O)CCCN2C(=O)c3cccnc3Oc3ccc(Cl)cc32)cc1,inactive: -12.6%
18,Cc1nc(-c2ccccc2)sc1CCNC(=O)C(=O)Nc1ccc2c(c1)OCCO2,inactive: 7.93%
19,Cc1cccc(NC(=O)C(Cc2ccccc2)n2cccc2)c1C (stereo not given),inactive: -14.7%
